The IC50 comes from the fitted curve, where viability falls to half of the control; where the fit passes the top or lowest dose, that dose stands as a limit. The AUC spans the tested range (256-fold, ending at the top dose) of the same fit; the more sensitive the line, the further below 1. For part of these data: A top dose marked as inferred was derived from the fitted curves, not read from the paper.
What was measured:
Assay in all cases: Viability of human cancer cell lines after 72 h of drug (GDSC screen)
BMX-IN-1 (QL-XII-61) = compound: C=CC(=O)Nc1cc(-n2c(=O)ccc3cnc4ccc(-c5ccc(NS(C)(=O)=O)cc5)cc4c32)ccc1C [BMX-IN-1 (QL-XII-61)]; details: top dose 10 µM; top dose inferred
Protocol: (§1)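 Human cancer cell lines in 384-well plates, medium with 10% serum, drug for 72 h over a 256-fold dose range (nine 2-fold or five 4-fold steps up to the top dose). Adherent lines were fixed and stained with the nucleic acid dye Syto60, suspension lines read with resazurin; signal relative to control wells, capped at 0 and 100%. One two-parameter sigmoid per drug and line, fitted in a mixed model over all curves with the slope shared within a line.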

OSI-027 = compound: COc1cccc2cc(-c3nc([C@H]4CC[C@H](C(=O)O)CC4)n4ncnc(N)c34)[nH]c12 [OSI-027]; details: top dose 20 µM
Protocol: as §1

TG101348 = compound: Cc1cnc(Nc2ccc(OCCN3CCCC3)cc2)nc1Nc1cccc(S(=O)(=O)NC(C)(C)C)c1 [TG101348]; details: top dose 10.24 µM
Protocol: as §1

17-AAG = compound: C=CCNC1=C2C[C@@H](C)C[C@H](OC)[C@H](O)[C@@H](C)/C=C(\C)[C@H](OC(N)=O)[C@@H](OC)/C=C\C=C(/C)C(=O)NC(=CC1=O)C2=O [17-AAG]; details: top dose 1 µM
Protocol: as §1

CCT018159 = compound: CCc1cc(-c2n[nH]c(C)c2-c2ccc3c(c2)OCCO3)c(O)cc1O [CCT018159]; details: top dose 10 µM; top dose inferred
Protocol: as §1

Vismodegib = compound: CS(=O)(=O)c1ccc(C(=O)Nc2ccc(Cl)c(-c3ccccn3)c2)c(Cl)c1 [Vismodegib]; details: top dose 10 µM; top dose inferred
Protocol: as §1

BIX02189 = compound: CN(C)Cc1cccc(N=C(c2ccccc2)c2c(O)[nH]c3cc(C(=O)N(C)C)ccc23)c1 [BIX02189]; details: top dose 20 µM; top dose inferred
Protocol: as §1

VX-11e = compound: Cc1cnc(Nc2ccc(F)cc2Cl)nc1-c1c[nH]c(C(=O)N[C@H](CO)c2cccc(Cl)c2)c1 [VX-11e]; details: top dose 5.12 µM; top dose inferred
Protocol: as §1

Dimethyloxalylglycine = compound: COC(=O)CNC(=O)C(=O)OC [Dimethyloxalylglycine]; details: top dose 4000 µM; top dose inferred
Protocol: as §1

UNC1215 = compound: O=C(c1ccc(C(=O)N2CCC(N3CCCC3)CC2)c(Nc2ccccc2)c1)N1CCC(N2CCCC2)CC1 [UNC1215]; details: top dose 1 µM; top dose inferred
Protocol: as §1

Doxorubicin = compound: COc1cccc2c1C(=O)c1c(O)c3c(c(O)c1C2=O)C[C@@](O)(C(=O)CO)C[C@@H]3O[C@H]1C[C@H](N)[C@H](O)[C@H](C)O1 [Doxorubicin]; details: top dose 1.024 µM
Protocol: as §1

Row | Cell Line | AUC (BMX-IN-1 (QL-XII-61)) | IC50 (BMX-IN-1 (QL-XII-61)) [µM] | AUC (OSI-027) | IC50 (OSI-027) [µM] | AUC (TG101348) | IC50 (TG101348) [µM] | AUC (17-AAG) | IC50 (17-AAG) [µM] | AUC (CCT018159) | IC50 (CCT018159) [µM] | AUC (Vismodegib) | IC50 (Vismodegib) [µM] | AUC (BIX02189) | IC50 (BIX02189) [µM] | AUC (VX-11e) | IC50 (VX-11e) [µM] | AUC (Dimethyloxalylglycine) | IC50 (Dimethyloxalylglycine) [µM] | AUC (UNC1215) | IC50 (UNC1215) [µM] | AUC (Doxorubicin) | IC50 (Doxorubicin) [µM]
1 | SK-N-SH (neuroblastoma, adherent) | 0.973 | > 10 | 0.392 | 0.635 | 0.93 | > 10.2 | 0.97 | > 1 | 0.901 | > 10 | 0.985 | > 10 | 0.949 | > 20 | 0.979 | > 5.12 | 0.493 | 240 | 0.977 | > 1 | 0.489 | 0.0596
2 | H3118 (head and neck, adherent) | 0.966 | > 10 | 0.785 | 9.45 | 0.863 | > 10.2 | 0.616 | 0.134 | 0.871 | > 10 | 0.969 | > 10 | 0.919 | > 20 | 0.675 | 1.04 | 0.562 | 376 | 0.977 | > 1 | 0.36 | 0.0253
3 | KYSE-150 (oesophagus, adherent) | 0.988 | > 10 | 0.818 | 10.7 | 0.938 | > 10.2 | 0.487 | 0.0576 | 0.751 | 3.17 | 0.842 | 6.62 | 0.961 | > 20 | 0.977 | > 5.12 | 0.72 | 1020 | 0.988 | > 1 | 0.318 | 0.0203
4 | WSU-DLCL2 (B-cell lymphoma, suspension) | 0.459 | 0.494 | 0.749 | 5.55 | 0.673 | 1.76 | 0.935 | > 1 | 0.928 | > 10 | 0.971 | > 10 | 0.993 | > 20 | 0.993 | > 5.12 | 0.968 | > 4000 | 0.99 | > 1 | 0.587 | 0.106
5 | KNS-42 (glioma, adherent) | 0.882 | > 10 | 0.897 | > 20 | 0.95 | > 10.2 | 0.856 | > 1 | 0.963 | > 10 | 0.984 | > 10 | 0.935 | > 20 | 0.973 | > 5.12 | 0.49 | 234 | 0.978 | > 1 | 0.691 | 0.247
6 | RPMI-8402 (T-cell lymphoblastic leukaemia, suspension) | 0.963 | > 10 | 0.2 | 0.197 | 0.466 | 0.525 | 0.989 | > 1 | 0.933 | > 10 | 0.987 | > 10 | 0.709 | 4.33 | 0.96 | > 5.12 | 0.534 | 305 | 0.99 | > 1 | 0.424 | 0.0411
7 | LB373-MEL-D (melanoma, adherent) | 0.825 | 5.85 | 0.959 | > 20 | 0.989 | > 10.2 | 0.938 | > 1 | 0.99 | > 10 | 0.99 | > 10 | 0.982 | > 20 | 0.924 | > 5.12 | 0.663 | 701 | 0.989 | > 1 | 0.67 | 0.188
8 | RERF-LC-MS (lung adenocarcinoma, adherent) | 0.97 | > 10 | 0.88 | > 20 | 0.948 | > 10.2 | 0.827 | 0.633 | 0.837 | 6.93 | 0.987 | > 10 | 0.957 | > 20 | 0.963 | > 5.12 | 0.746 | 1300 | 0.985 | > 1 | 0.784 | 0.448
9 | HARA (lung squamous cell carcinoma, adherent) | 0.97 | > 10 | 0.328 | 0.38 | 0.837 | 8.53 | 0.601 | 0.124 | 0.872 | > 10 | 0.983 | > 10 | 0.926 | > 20 | 0.928 | > 5.12 | 0.641 | 656 | 0.981 | > 1 | 0.63 | 0.155
10 | Daudi (Burkitt lymphoma, suspension) | 0.86 | 6.72 | 0.095 | < 0.0781 | 0.741 | 2.8 | 0.983 | > 1 | 0.904 | > 10 | 0.989 | > 10 | 0.892 | 18.3 | 0.972 | > 5.12 | 0.295 | 72.4 | 0.988 | > 1 | 0.505 | 0.0659
11 | NCI-H524 (small cell lung carcinoma, suspension) | 0.778 | 3.62 | 0.249 | 0.262 | 0.81 | 4.7 | 0.984 | > 1 | 0.977 | > 10 | 0.955 | > 10 | 0.991 | > 20 | 0.991 | > 5.12 | 0.851 | 2560 | 0.987 | > 1 | 0.985 | > 1.02
12 | JURL-MK1 (chronic myeloid leukaemia, suspension) | 0.973 | > 10 | 0.356 | 0.501 | 0.722 | 2.71 | 0.792 | 0.449 | 0.894 | > 10 | 0.934 | > 10 | 0.726 | 5.46 | 0.541 | 0.414 | 0.73 | 1120 | 0.979 | > 1 | 0.639 | 0.155
13 | NCI-H1876 (small cell lung carcinoma, adherent) | 0.806 | 5.17 | 0.249 | 0.235 | 0.851 | 7.98 | 0.987 | > 1 | 0.98 | > 10 | 0.986 | > 10 | 0.972 | > 20 | 0.952 | > 5.12 | 0.739 | 1220 | 0.957 | > 1 | 0.624 | 0.141
14 | DBTRG-05MG (glioma, adherent) | 0.947 | > 10 | 0.633 | 3.11 | 0.877 | > 10.2 | 0.763 | 0.418 | 0.969 | > 10 | 0.979 | > 10 | 0.941 | > 20 | 0.898 | > 5.12 | 0.526 | 298 | 0.973 | > 1 | 0.513 | 0.0701
15 | NCI-H1395 (lung adenocarcinoma, adherent) | 0.979 | > 10 | 0.85 | > 20 | 0.763 | 4.89 | 0.63 | 0.161 | 0.966 | > 10 | 0.982 | > 10 | 0.949 | > 20 | 0.978 | > 5.12 | 0.921 | > 4000 | 0.98 | > 1 | 0.955 | > 1.02
16 | LC-1-sq (lung squamous cell carcinoma, adherent) | 0.956 | > 10 | 0.727 | 6.24 | 0.882 | > 10.2 | 0.885 | > 1 | 0.985 | > 10 | 0.961 | > 10 | 0.985 | > 20 | 0.982 | > 5.12 | 0.636 | 635 | 0.983 | > 1 | 0.636 | 0.162
17 | CW-2 (large intestine, adherent) | 0.986 | > 10 | 0.924 | > 20 | 0.858 | 9.45 | 0.931 | > 1 | 0.891 | > 10 | 0.987 | > 10 | 0.976 | > 20 | 0.939 | > 5.12 | 0.977 | > 4000 | 0.988 | > 1 | 0.989 | > 1.02
18 | RT4 (bladder, adherent) | 0.929 | > 10 | 0.689 | 4.36 | 0.859 | 9.24 | 0.8 | 0.513 | 0.986 | > 10 | 0.987 | > 10 | 0.752 | 6.96 | 0.693 | 1.15 | 0.643 | 634 | 0.985 | > 1 | 0.848 | 0.824
19 | LB771-HNC (head and neck, adherent) | 0.972 | > 10 | 0.769 | 9.49 | 0.934 | > 10.2 | 0.899 | > 1 | 0.924 | > 10 | 0.982 | > 10 | 0.966 | > 20 | 0.952 | > 5.12 | 0.554 | 365 | 0.98 | > 1 | 0.913 | > 1.02
20 | VA-ES-BJ (soft tissue, adherent) | 0.983 | > 10 | 0.571 | 1.98 | 0.973 | > 10.2 | 0.457 | 0.0473 | 0.912 | > 10 | 0.967 | > 10 | 0.984 | > 20 | 0.985 | > 5.12 | 0.713 | 1040 | 0.984 | > 1 | 0.445 | 0.045
21 | DOK (head and neck, adherent) | 0.954 | > 10 | 0.835 | > 20 | 0.81 | 9.17 | 0.371 | 0.0231 | 0.859 | > 10 | 0.823 | > 10 | 0.957 | > 20 | 0.964 | > 5.12 | 0.903 | > 4000 | 0.972 | > 1 | 0.839 | > 1.02

— the supplement of paper PMC4967469
